# Experimental data: the supplement of paper PMC12645437, “Orthogonal IMiD-Degron Pairs Induce Selective Protein Degradation in Cells” (ACS Chemical Biology, 2025)
# This is one part of the list.
# B1: Q9UKT9 (peptide)
# chain: FRCEVCGAAFTQKGNLLRHIKL
# B2: Q9UKT9 (peptide)
# chain: FTCDICGAWFTQKGNLLRHIKL
# B3: Q9UKT9 (peptide)
# chain: FVCPICGRVFTQKGNLLRHIKL
# B4: Q9UKT9 (peptide)
# chain: FICPICGRCFTQKGNLLRHIKL
# B5: Q9UKT9 (peptide)
# chain: FTCDVCGATFTQKGNLLRHIKL
# B6: Q9UKT9 (peptide)
# chain: LCCNQCGFKCTQKGNLLRHIKL
# B7: Q9UKT9 (peptide)
# chain: FQCEVCGAWFTQKGNLLRHIKL
# B8: Q9UKT9 (peptide)
# chain: FICNQCGAVFTQKGNLLRHIKL
# B9: Q9UKT9 (peptide)
# chain: FRCEICGRHFTQKGNLLRHIKL
# B10: Q9UKT9 (peptide)
# chain: FCCEVCGAMFTQKGNLLRHIKL
# B11: Q9UKT9 (peptide)
# chain: FWCPQCGAFFTQKGNLLRHIKL
# B12: Q9UKT9 (peptide)
# chain: FMCNQCGAQFTQKGNLLRHIKL
# B13: Q9UKT9 (peptide)
# chain: FCCEQCGAKFTQKGNLLRHIKL
# B14: Q9UKT9 (peptide)
# chain: FLCNVCGAYFTQKGNLLRHIKL
# Target: no compound (DMSO)
# Experiment: log2 fold change of degron read counts, EGFP-low vs EGFP+ sorted cells; higher = lower degron-EGFP level without compound (poor expression or instability)
# Conditions: compound: DMSO control; 18 h
# 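Note: jurkat cells carrying a lentiviral library of mutant zinc finger degrons fused to EGFP plus mCherry, mCherry+ cells FACS sorted, degron abundance counted by next-generation sequencing.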
row,Sequence,log2 fold change of degron read counts
1,B1,-1.4
2,B2,-1.39
3,B3,0.106
4,B4,0.0287
5,B5,-1.65
6,B6,0.475
7,B7,-0.975
8,B8,-0.326
9,B9,-0.955
10,B10,-1.15
11,B11,1.73
12,B12,-1.56
13,B13,-1.17
14,B14,-0.283
